# Some of the results follow.
# Target: T1, OsWOX13 (Oryza sativa, UniProt Q5QMM3 1-267)
# T1 sequence: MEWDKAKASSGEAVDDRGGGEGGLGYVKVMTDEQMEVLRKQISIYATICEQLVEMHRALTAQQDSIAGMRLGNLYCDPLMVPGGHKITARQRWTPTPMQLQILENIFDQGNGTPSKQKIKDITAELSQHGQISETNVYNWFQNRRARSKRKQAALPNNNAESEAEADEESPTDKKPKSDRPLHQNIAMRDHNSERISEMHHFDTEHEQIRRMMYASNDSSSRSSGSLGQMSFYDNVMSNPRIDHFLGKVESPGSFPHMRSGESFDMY
# Assay: protein-binding microarray (RPBM); PBS, 2% BSA, 51.3 ng/ul salmon testes DNA, 50 uM zinc acetate, 200 nM TF, 25 C, 1 h; high values mean tight binding
# Conditions: protein: recombinant; tags: N-terminal polyhistidine and DsRed monomer fusion (pET32a); label: CyDye5-dUTP incorporated in the synthesized complementary strand; 3' TTTTT single-stranded linker to array surface; dsDNA, one strand shown
# In short: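 Binding signal is defined as the fluorescence intensity of each feature in arbitrary units, read on an Axon 4000B scanner. Transcription factors with N-terminal polyhistidine and DsRed fusions came from E. coli BL21-CodonPlus and were purified on Ni–NTA. They were incubated at 200 nM for 1 h at 25 °C on a custom Agilent array that had been made double-stranded with Cy5-dUTP, with 50 µM zinc acetate present, and the array was washed.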
row,Sequence,binding signal
1,AATATCCCATGATTGACTAGCTAGATGAATCCATATGGGTCGGAGTCACCTAGTGCAG,36500 fluorescence intensity (a.u.)
2,GGGTGATTAATCCAAGTAATGATCTCACTCCACTGATAGTCGGAGTCACCTAGTGCAG,26800 fluorescence intensity (a.u.)
3,CAACTAATTGAATATTGTATTTTAATGCTCGTGGTGTCCCCGGAGTCACCTAGTGCAG,52200 fluorescence intensity (a.u.)
4,GAAGAAGATTGCCGGTTGACTTGTGGAGTCCACGTGGGACCGGAGTCACCTAGTGCAG,8820 fluorescence intensity (a.u.)
5,TTTATTTGTTTTGCTGATGATTTGCTACGTCAGCGAAACCCGGAGTCACCTAGTGCAG,4530 fluorescence intensity (a.u.)
6,GTCCCCGAACTTCCAGTTAATTATGTGCCGGTCCTAGATTCGGAGTCACCTAGTGCAG,4240 fluorescence intensity (a.u.)
7,GTCTGATTTTGGCTGTGTAAATCCGTCTCAGGATAGGCCGCGGAGTCACCTAGTGCAG,13200 fluorescence intensity (a.u.)
8,TTTGATATGTTGTCTTCCTCCAATTACGAATCTTTCGTTGCGGAGTCACCTAGTGCAG,10400 fluorescence intensity (a.u.)
9,AATAATTAATACTGGTTTGTCTCGTTTTACGTATCATAAACGGAGTCACCTAGTGCAG,21400 fluorescence intensity (a.u.)
10,TGTTATAATAGTGTAGATTGATCGATATAATTGTATATGACGGAGTCACCTAGTGCAG,3170 fluorescence intensity (a.u.)
11,GGGTAAAATTATCAAAATTAATCACCTTTCTTCCTCCTCGCGGAGTCACCTAGTGCAG,17400 fluorescence intensity (a.u.)
12,CCAAATTTTGATATGCCAAATTTTGATCGCCCACCTGCACCGGAGTCACCTAGTGCAG,7090 fluorescence intensity (a.u.)
13,GGGAATTAGGGGCAGATTGCTAAGGACTTAGACGTGTTGCCGGAGTCACCTAGTGCAG,15700 fluorescence intensity (a.u.)
14,CCTGAGCGAGTTGATTTGCACTGTTCCTTGAACACACAAGCGGAGTCACCTAGTGCAG,5420 fluorescence intensity (a.u.)
15,ATTTTCTCTTAAATTACTTATCTAATCTATAATCCGATCACGGAGTCACCTAGTGCAG,3650 fluorescence intensity (a.u.)
16,ATTTGAGGATTGGTGTCTAAATCACATCATAGTATATTGCCGGAGTCACCTAGTGCAG,4340 fluorescence intensity (a.u.)
17,CGTGATAGAATCTGCCGACTTGTCTTAGCTAACAGCTTCCCGGAGTCACCTAGTGCAG,15000 fluorescence intensity (a.u.)
18,ATTACTCATGATGGGCTTCAATTATCTCTTGCTTCAGCAACGGAGTCACCTAGTGCAG,16200 fluorescence intensity (a.u.)
19,CCATTCCTGTCAATCTGGGCCAGAGGGCTGAAATTGGGCCCGGAGTCACCTAGTGCAG,5060 fluorescence intensity (a.u.)
20,GGTAATGATGAAGAAACATTGTCCGGCATCCTTCAGATTTCGGAGTCACCTAGTGCAG,4690 fluorescence intensity (a.u.)
21,CAAATTCACATTGATAGGTATAATGATGTACACTCTTCGTCGGAGTCACCTAGTGCAG,8210 fluorescence intensity (a.u.)

row,Sequence,binding signal
1,ATGTAAAGATTTTAATTACAACGAATATAACGGTGTAATCCGGAGTCACCTAGTGCAG,8090 fluorescence intensity (a.u.)
2,GTACTCACAAATTATTGATTCATGGAAGGAAGGAAGGAGGCGGAGTCACCTAGTGCAG,5970 fluorescence intensity (a.u.)
3,AGGGATTTTACTAATCATGTCAACTGCTGAACAGTTATAACGGAGTCACCTAGTGCAG,9740 fluorescence intensity (a.u.)
4,AGATAGATAGCTATCAGATTGGAATTGGCCACAAAAGCTACGGAGTCACCTAGTGCAG,11000 fluorescence intensity (a.u.)
5,TTGCACGCGTAATTAATCAATCAATAATATACCCTCTTCGCGGAGTCACCTAGTGCAG,37500 fluorescence intensity (a.u.)
6,CCTAAATTTCAATTTTAGGGATGCATGGGACATGGCTGCACGGAGTCACCTAGTGCAG,9800 fluorescence intensity (a.u.)
7,TAAGTCGCAGTTAAAATTTAAATTTTAAAACCTAAACTTCCGGAGTCACCTAGTGCAG,4740 fluorescence intensity (a.u.)
8,CTTAACAATTGACCATCAGATCCTGTGCACTTGGTAGTTTCGGAGTCACCTAGTGCAG,7030 fluorescence intensity (a.u.)
9,ATAATGGGAAATGGAGGGTGGGATTGGGATTAGAAAATGACGGAGTCACCTAGTGCAG,3290 fluorescence intensity (a.u.)
10,GGGCGAGATTGAAGGAGACGTCGTCTGGCAGGAAGGGTAGCGGAGTCACCTAGTGCAG,15600 fluorescence intensity (a.u.)
11,TGGTATGAATGGATAATTTGTTTCTGTCTTATGTGTTGCTCGGAGTCACCTAGTGCAG,4830 fluorescence intensity (a.u.)
12,CAAATTTGACAGATGCAATTATAGTACAATCGTAGTGTAACGGAGTCACCTAGTGCAG,31000 fluorescence intensity (a.u.)
13,TAATGTACATAATTACCATTGCACCTTTATTTTGTATAATCGGAGTCACCTAGTGCAG,4180 fluorescence intensity (a.u.)
14,ACTTGAGATTGACAAAGTCATAACGAATGTCTCGTTATTGCGGAGTCACCTAGTGCAG,39400 fluorescence intensity (a.u.)
15,CTTTCAAATTAAATTATACGAGGAACTTTCAACCGTGGCTCGGAGTCACCTAGTGCAG,4880 fluorescence intensity (a.u.)
16,AAACCAATTAGTCAGACAATATATACCAGCACAAAATACACGGAGTCACCTAGTGCAG,4390 fluorescence intensity (a.u.)
17,GCGCTGATCAGGGTGGTGATTGCTATTTTGTTCTTGATGGCGGAGTCACCTAGTGCAG,31900 fluorescence intensity (a.u.)
18,GCAAATTGTTTCTTGGATTGGAGCAGGTGGTTGGTGAAGACGGAGTCACCTAGTGCAG,20400 fluorescence intensity (a.u.)
19,ATATATAATCATTGATCTTAATTATTGAGTGTCAGTAGTACGGAGTCACCTAGTGCAG,24400 fluorescence intensity (a.u.)
20,GCATTTGATAGCAATTTGTGGAAGCTAGAAATGCCTTCACCGGAGTCACCTAGTGCAG,9500 fluorescence intensity (a.u.)
21,AGCCTAATTAATCCGTCATCAGCAAATGTTTATTGTAGCACGGAGTCACCTAGTGCAG,29700 fluorescence intensity (a.u.)
